Data on 18 molecules can be found in the supplement of paper PMC10369915.

To fix the notation:
B1: SPP1_Y225_S224N (peptide)
chain: RGKDNYETSQL
B2: SPATA17_Y83_M86V_YF (peptide)
chain: TVQVAYFTVMM
B3: SOX9_Y172_P170L (peptide)
chain: KDHLDYKYQPR
B4: SRC_Y522 (peptide)
chain: AFLEDYFTSTE
B5: SPATA16_Y290_M286V (peptide)
chain: AVIADYMFWLG
B6: SPTLC2_Y178_R183W_YF (peptide)
chain: MGSFNYLGFAW
B7: SPATA18_Y229 (peptide)
chain: EAMSDYKKQLR
B8: SPRR3_Y146 (peptide)
chain: VPVPGYTKLPE
B9: SQOR_Y259_I264T (peptide)
chain: NLTVNYKKNLT
B10: SRC_Y232 (peptide)
chain: QQLVAYYSKHA
B11: SRC_Y232_A237T (peptide)
chain: QQLVAYYSKHT
B12: SPTBN2_Y834_E835K (peptide)
chain: TLERHYKELQA
B13: SOX11_Y116_Y116C (peptide)
chain: ADYPDCKYRPR
B14: SPEM2_Y104 (peptide)
chain: SRPTQYSSFSC
B15: SQSTM1_Y148 (peptide)
chain: SVCPDYDLCSV
B16: SPTLC2_Y178 (peptide)
chain: MGSYNYLGFAR
B17: SPINK5_Y440_R441H (peptide)
chain: ELCSEYHKSRK
B18: SPRED3_Y72 (peptide)
chain: KPGLVYNKVNP

This is one part of the list. No stated cut-off is given here; in the data, active = 3.2 or more and inactive = the rest. The signal is at background level for most entries.
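Further: displayed peptides selected on beads carrying the immobilized SH2 domain, with library peptides lacking any tyrosine serving as negative controls.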

The target in one assay is SHP2 C-SH2 domain E139D. Briefly: enrichment score (SH2-bound / input frequency) (ratio); bacterial display of known human phosphotyrosine sites (pTyr-Var adds point mutants) read by sequencing; higher = stronger binding; tyrosines were phosphorylated by kinases first. The following applies: peptide library: pTyr-Var.
For B1, the enrichment score is inactive: 0.557.
On the same count and under the same terms, for B2 the value was inactive: 0.916; for B3, inactive: 0.976.
Turning to B4, the enrichment score was inactive: 1.47.
Take B5: the enrichment score is inactive: 2.99.
The same measure, in the same setting: the figure for B6 is inactive: 0.664; for B7 it is inactive: 0.722; for B8 it is inactive: 0.867.
Turning to B9, the enrichment score is inactive: 0.716.
The same measure, in the same setting: the figure for B10 is inactive: 0.987; for B11 it is inactive: 1.22; for B12 it is inactive: 1.04.
With B13, the enrichment score is inactive: 0.636.
On the same count and under the same terms, for B14 the value was inactive: 0.809; for B15, inactive: 1.07.
On to B16, for which the enrichment score is inactive: 1.91.
Consider B17, for which the enrichment score was inactive: 0.852.
Turning to B18, the enrichment score was inactive: 1.2.

Another assay deals with SHP2 C-SH2 domain wild-type. The description is as above. The following applies: peptide library: pTyr-Var.
For B1, the enrichment score is inactive: 0.534.
With B2, the enrichment score is inactive: 1.
Turning to B3, the enrichment score was inactive: 0.663.
B4: the enrichment score was inactive: 1.15.
Turning to B5, the enrichment score is inactive: 2.95.
Consider B6, for which the enrichment score was inactive: 0.825.
On to B7, for which the enrichment score was inactive: 0.426.
As to B8, the enrichment score is inactive: 1.04.
As to B9, the enrichment score was inactive: 0.68.
B10: the enrichment score was inactive: 0.593.
For B11, the enrichment score was inactive: 0.768.
With B12, the enrichment score was inactive: 0.988.
Still for that read-out and setting: the figure for B13 is inactive: 0.917.
Consider B14, for which the enrichment score is inactive: 1.3.
As to B15, the enrichment score is inactive: 0.956.
As for B16, the enrichment score is inactive: 2.7.
With B17, the enrichment score was inactive: 0.909.
B18: the enrichment score is inactive: 1.41.

Another assay has as its target SHP2 N-SH2 domain L43F. The description is as above. The following applies: peptide library: pTyr-Var.
B1: the enrichment score is inactive: 0.583.
With B2, the enrichment score is inactive: 0.926.
On to B3, for which the enrichment score is inactive: 1.33.
For the molecule B4, the enrichment score is inactive: 1.18.
In the case of B5, the enrichment score is inactive: 3.06.
Take B6: the enrichment score is inactive: 0.883.
Same read-out and setting: the figure for B7 is inactive: 0.506; for B8 it is inactive: 0.993.
As for B9, the enrichment score is inactive: 0.779.
With B10, the enrichment score is inactive: 0.955.
On to B11, for which the enrichment score is inactive: 1.13.
In the case of B12, the enrichment score was inactive: 0.816.
Same read-out and setting: the figure for B13 is inactive: 0.625; for B14 it is inactive: 0.703; for B15 it is inactive: 1.41.
On the same count and under the same terms, for B16 the value was inactive: 1.77; for B17, inactive: 0.727.
For the molecule B18, the enrichment score is inactive: 1.24.

The next assay deals with SHP2 N-SH2 domain T42A. The description is as above. The following applies: peptide library: pTyr-Var.
B1: the enrichment score was inactive: 0.356.
For the molecule B2, the enrichment score was inactive: 0.864.
On the same count and under the same terms, the figure for B3 is inactive: 0.696; for B4 it is inactive: 1.41; for B5 it is inactive: 2.54.
As for B6, the enrichment score was inactive: 0.594.
B7: the enrichment score was inactive: 0.603.
For B8, the enrichment score is inactive: 0.919.
In the case of B9, the enrichment score is inactive: 0.54.
Regarding B10, the enrichment score is inactive: 0.734.
Take B11: the enrichment score is inactive: 0.901.
As for B12, the enrichment score is inactive: 0.68.
With B13, the enrichment score is inactive: 0.53.
The same measure, in the same setting: the figure for B14 is inactive: 0.832.
On to B15, for which the enrichment score was inactive: 1.04.
On the same count and under the same terms, for B16 the value was inactive: 2.91; for B17, inactive: 0.826; for B18, inactive: 1.07.

The target in the next assay is SHP2 N-SH2 domain T52S. Described as above. Conditions: peptide library: pTyr-Var.
With B1, the enrichment score was inactive: 0.521.
In the case of B2, the enrichment score is inactive: 0.974.
In the case of B3, the enrichment score is inactive: 0.769.
Consider B4, for which the enrichment score is inactive: 1.31.
With B5, the enrichment score is inactive: 2.76.
Turning to B6, the enrichment score was inactive: 0.927.
Take B7: the enrichment score was inactive: 0.693.
On the same count and under the same terms, for B8 the value was inactive: 0.752; for B9, inactive: 0.859.
The same measure, in the same setting: for B10 the value was inactive: 0.793.
Regarding B11, the enrichment score was inactive: 1.13.
On to B12, for which the enrichment score was inactive: 0.895.
As for B13, the enrichment score is inactive: 0.533.
Same read-out and setting: the figure for B14 is inactive: 0.508; for B15 it is inactive: 1.39.
On to B16, for which the enrichment score was inactive: 1.34.
As to B17, the enrichment score was inactive: 0.949.
The same measure, in the same setting: for B18 the value was inactive: 1.16.

A further assay concerns the target SHP2 N-SH2 domain wild-type. Described as above. Conditions: peptide library: pTyr-Var.
For the molecule B1, the enrichment score is inactive: 0.543.
For the molecule B2, the enrichment score was inactive: 1.03.
With B3, the enrichment score was inactive: 0.944.
For the molecule B4, the enrichment score is inactive: 1.15.
Same read-out and setting: for B5 the value was inactive: 2.76.
Turning to B6, the enrichment score is inactive: 0.983.
For B7, the enrichment score is inactive: 0.673.
In the case of B8, the enrichment score was inactive: 0.849.
B9: the enrichment score is inactive: 0.901.
As for B10, the enrichment score is inactive: 0.837.
With B11, the enrichment score was inactive: 0.95.
For the molecule B12, the enrichment score was inactive: 0.983.
In the case of B13, the enrichment score was inactive: 1.05.
Regarding B14, the enrichment score was inactive: 0.775.
Same read-out and setting: for B15 the value was inactive: 1.05.
B16: the enrichment score is inactive: 1.31.
On the same count and under the same terms, the figure for B17 is inactive: 1.02; for B18 it is inactive: 1.24.
